Source: paper PMC4336329 (PLoS ONE, 2015)
The whole screen tested about 310,000 compounds, of which about 2,200 (0.71%) showed an effect of 50% or more. Effects have a minus sign here. The list shows a part of the results.

What follows are compounds tested against human ether-à-go-go-related gene (hERG) potassium channel (human, UniProt Q12809) (assay: primary screen, population patch clamp on CHO cells stably expressing hERG).
human ether-à-go-go-related gene (hERG) potassium channel, sequence (Q12809 whole entry, looked up): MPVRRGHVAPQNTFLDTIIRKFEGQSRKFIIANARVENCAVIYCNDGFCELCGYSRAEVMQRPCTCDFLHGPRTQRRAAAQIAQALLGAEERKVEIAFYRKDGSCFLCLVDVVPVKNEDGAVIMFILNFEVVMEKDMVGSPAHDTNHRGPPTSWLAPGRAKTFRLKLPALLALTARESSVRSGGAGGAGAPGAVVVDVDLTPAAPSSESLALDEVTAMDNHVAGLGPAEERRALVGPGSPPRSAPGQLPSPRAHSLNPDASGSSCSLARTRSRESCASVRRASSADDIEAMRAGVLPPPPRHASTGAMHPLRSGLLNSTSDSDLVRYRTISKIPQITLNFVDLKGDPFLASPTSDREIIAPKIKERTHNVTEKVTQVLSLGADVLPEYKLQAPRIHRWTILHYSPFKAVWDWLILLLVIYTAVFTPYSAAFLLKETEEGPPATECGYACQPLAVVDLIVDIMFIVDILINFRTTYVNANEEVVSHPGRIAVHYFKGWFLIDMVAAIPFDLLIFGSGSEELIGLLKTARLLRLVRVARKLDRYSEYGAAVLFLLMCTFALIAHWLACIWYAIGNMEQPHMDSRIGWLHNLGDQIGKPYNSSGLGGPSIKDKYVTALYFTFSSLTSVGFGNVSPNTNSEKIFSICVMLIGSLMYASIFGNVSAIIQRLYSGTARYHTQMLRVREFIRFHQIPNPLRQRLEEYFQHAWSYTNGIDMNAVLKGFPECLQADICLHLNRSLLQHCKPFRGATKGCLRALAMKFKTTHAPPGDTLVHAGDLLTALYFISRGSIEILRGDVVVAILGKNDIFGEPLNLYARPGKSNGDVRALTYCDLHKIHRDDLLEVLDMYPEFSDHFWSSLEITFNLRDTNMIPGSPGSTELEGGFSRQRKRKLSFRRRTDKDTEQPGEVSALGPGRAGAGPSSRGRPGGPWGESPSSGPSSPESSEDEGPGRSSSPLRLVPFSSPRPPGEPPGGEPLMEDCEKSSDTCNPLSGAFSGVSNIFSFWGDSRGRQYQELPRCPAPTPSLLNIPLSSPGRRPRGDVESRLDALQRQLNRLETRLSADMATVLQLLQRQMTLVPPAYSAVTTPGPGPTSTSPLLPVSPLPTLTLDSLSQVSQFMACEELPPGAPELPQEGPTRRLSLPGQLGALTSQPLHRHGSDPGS

Structure (SMILES) | hERG current change (%, negative = inhibition) at 1uM
O=C(Cn1ncc(Cl)c(Cl)c1=O)N1CCOCC1 | 12%
CCOC(=O)c1c(CN2CCCCC2)n(C)c2cc(Br)c(O)cc12 | -68.8%
Cc1cc(C)cc(OCC(=O)N2N=C(C(F)(F)F)CC2(O)C(C)(C)C)c1 (stereo not drawn) | 9.92%
Cc1ccc2cccc(Oc3ncnc4scc(-c5ccc(Cl)cc5)c34)c2n1 | -0.47%
CCN1CCN(CC(=O)Nc2ccccc2)C(=O)C1=O | 14%
COC(=O)c1cc(C(=O)NCc2ccccc2)c(=O)[nH]c1C | 4.07%
CCO/C=C1/C(=O)N(Cc2ccccc2)C(=O)c2ccccc21 | 6.53%
CCCCCCCCN1[C@@H](CC(=O)OC)c2cc(F)ccc2S1(=O)=O | -0.716%
COc1cccc(C(=O)NCCS(=O)(=O)N2CCC3(CC2)OCCO3)c1 | 9.28%
COc1ccc2nc(N3C(=O)CNC3=S)sc2c1 | 8.24%
CSc1nc(-c2ccccc2)nc(NC(C)=O)c1C(C)=O | 6.75%
O=C(Nc1ccccc1-c1ccccc1)c1cccc([N+](=O)[O-])c1 | 0.868%
O=C(CCCN1C(=O)/C(=C/c2ccco2)SC1=S)Nc1cccc(C(=O)O)c1 | 6.91%
CN(C)N=Nc1ccc2nc[nH]c2c1 | 3.96%
Cc1ccc(S(=O)(=O)N2CCN(CC(=O)Nc3ccc4c(c3)CCC4)CC2)cc1C | 7.52%
COC(=O)COc1ccc2c(=O)c(Oc3ccccc3)c(C)oc2c1 | 11.6%
CC(C)OC(=O)C(C(=O)C(F)(F)F)c1cc(NS(=O)(=O)c2ccc3ccccc3c2)c2ccccc2c1O (stereo not drawn) | 7.27%
CC1CCc2ccccc2N1C(=O)c1cccs1 (stereo not drawn) | 8.12%
CCn1c(CC(=O)Nc2ccc(C)cc2)nnc1SCC(=O)NCCc1ccccc1 | -4.71%
C=C(C)CNC(=O)c1ccc(OC2CCN(S(=O)(=O)N(C)C)CC2)cc1 | 13.2%
CN(C)[C@@H]1C(=O)C(C(N)=O)=C(O)[C@@]2(O)C(=O)C3=C(O)c4c(O)cccc4[C@@](C)(O)C3[C@H](O)C12.O (stereo partly drawn) | -3.5%
O=C(c1ccccc1)N1N=C(c2ccccc2)CC1c1cccs1 (stereo not drawn) | 9.97%
CCN1CCN(c2ccc([N+](=O)[O-])cc2C=C2C(=O)NC(=O)NC2=O)CC1 | -21.4%
O=C(CN1C(=O)c2ccccc2C1=O)NCc1ccc(N2CCOCC2)cc1 | 11.8%
